Reference: publication PMC4336329 (PLoS ONE, 2015)
Screen size: about 310,000 compounds; about 14,000 (4.5%) showed an effect of 50% or more. Effects have a minus sign here. This is one part of the list.

biological target: human ether-à-go-go-related gene (hERG) potassium channel (human, UniProt Q12809); assay: primary screen, population patch clamp on CHO cells stably expressing hERG
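Also: peak tail current of the secondary pulse compared with the same well before compound.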

Chain of human ether-à-go-go-related gene (hERG) potassium channel (Q12809 whole entry, looked up): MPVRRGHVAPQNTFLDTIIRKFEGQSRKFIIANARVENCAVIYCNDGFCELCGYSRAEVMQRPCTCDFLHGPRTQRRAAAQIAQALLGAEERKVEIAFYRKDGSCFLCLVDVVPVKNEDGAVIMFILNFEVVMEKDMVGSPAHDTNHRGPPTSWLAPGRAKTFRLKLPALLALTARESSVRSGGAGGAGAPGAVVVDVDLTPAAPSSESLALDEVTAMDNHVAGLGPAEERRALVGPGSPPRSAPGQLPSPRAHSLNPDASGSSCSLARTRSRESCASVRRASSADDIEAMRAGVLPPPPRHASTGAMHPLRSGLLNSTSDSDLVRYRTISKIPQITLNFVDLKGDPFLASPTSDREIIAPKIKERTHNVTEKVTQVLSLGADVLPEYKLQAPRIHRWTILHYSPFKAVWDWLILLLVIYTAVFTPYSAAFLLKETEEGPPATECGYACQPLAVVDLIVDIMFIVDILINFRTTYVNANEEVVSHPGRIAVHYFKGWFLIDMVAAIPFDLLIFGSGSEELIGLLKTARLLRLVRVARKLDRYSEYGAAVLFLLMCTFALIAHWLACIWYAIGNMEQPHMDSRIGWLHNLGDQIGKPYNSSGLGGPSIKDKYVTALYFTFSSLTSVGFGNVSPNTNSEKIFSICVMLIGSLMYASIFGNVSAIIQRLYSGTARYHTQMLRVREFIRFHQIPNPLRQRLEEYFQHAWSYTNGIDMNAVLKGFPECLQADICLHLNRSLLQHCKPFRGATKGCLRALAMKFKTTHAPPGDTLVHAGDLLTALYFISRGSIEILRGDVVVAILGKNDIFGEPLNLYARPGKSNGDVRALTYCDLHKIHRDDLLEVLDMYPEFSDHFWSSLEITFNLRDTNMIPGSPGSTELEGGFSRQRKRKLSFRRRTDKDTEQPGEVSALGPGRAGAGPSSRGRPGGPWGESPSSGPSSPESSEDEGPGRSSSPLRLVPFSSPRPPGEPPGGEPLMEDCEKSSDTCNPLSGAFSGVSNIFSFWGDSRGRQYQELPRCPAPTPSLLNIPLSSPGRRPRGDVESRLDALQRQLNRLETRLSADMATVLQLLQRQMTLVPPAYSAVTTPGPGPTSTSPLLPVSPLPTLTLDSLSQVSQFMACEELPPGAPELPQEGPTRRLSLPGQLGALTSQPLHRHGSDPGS

| SMILES | hERG current change (%, negative = inhibition) at 10uM [%] |
| --- | --- |
| O=S(=O)(Cc1ccccc1)N1CCn2c(nc3ccccc32)C1 | 9.91 |
| Cc1ccc(C(=O)N2CCN(c3ccccc3)CC2)cc1NC(=O)c1ccco1 | -45.7 |
| C=CCC1C(=O)NC(=S)NC1=O | 23.2 |
| Cc1occc1C(=O)NNC(=S)Nc1cccc([N+](=O)[O-])c1 | 8.3 |
| Cc1cc(OCC(=O)N2CCCN(C)CC2)ccc1Cl | 1.3 |
| Nc1nc(-c2ccccn2)nc(N)c1Cc1c(F)cccc1Cl | -4.24 |
| CCOC(=O)CC1COCCN1C(=O)c1cc(COc2ccc(F)c(F)c2)on1 (centres unmarked) | -61.5 |
| N=C1/C(=C\c2ccc(SCc3ccco3)o2)C(=O)N=C2SC=NN12 | 25.3 |
| CC(C)(C)c1ccc(C(=O)NCC(=O)NNC(=O)c2ccccc2O)cc1 | 10.3 |
| O=C(NS(=O)(=O)Oc1ccccc1F)OC[C@@H]1CCCN2CCCCC12 (some centres unmarked) | 41.2 |
| Cc1[nH]c2ccccc2c1/C=C(\C#N)C(=O)NC(C)c1ccccc1 (centres unmarked) | 16.4 |
| O=C(CSc1nnc(-c2cccc(Br)c2)o1)N1CCOCC1 | 0.556 |
| COc1cc(C=C2C(=O)c3ccccc3C2=O)cc(OC)c1 | 16.8 |
| Cc1ccc(N(CC(=O)NCC2CCCO2)C(=O)CCC(=O)Nc2ccccn2)cc1C (centres unmarked) | -2.39 |
| CC(=O)c1c(C)[nH]c(C2=NNC(=NC(C)(C)C)SC2)c1C | 19.8 |
| COc1cccc2c1Oc1ncccc1N(C(=O)CCC(=O)NCc1ccc(F)cc1)C2 | -32.6 |
| O=S(=O)(NCc1ccccc1)c1ccc(S(=O)(=O)N(Cc2cccs2)CC2CCCO2)cc1 (centres unmarked) | 11.4 |
| COc1ccc(NC(=O)C2CCC(CNc3c(N4CCCCC4)c(=O)c3=O)CC2)cc1OC (centres unmarked) | -5.56 |
| NS(=O)(=O)c1cc2c(cc1Cl)NC(CSCc1ccccc1)=NS2(=O)=O | 19.6 |
| Cc1onc(-c2ccccc2Cl)c1C(=O)Oc1cc(N)n(S(=O)(=O)c2ccc(F)cc2)n1 | -3.48 |
| COc1ccc(N2CCN(C(c3ccccc3)c3sc4nc(C)nn4c3O)CC2)cc1 (centres unmarked) | -22.1 |
| O=C(NNC(=O)c1ccccc1Cl)c1ccc2c(=O)n3c(nc2c1)CCC3 | -3.69 |
| Cc1oc(-c2ccccc2F)nc1CS(=O)CC(=O)NCc1ccc2c(c1)OCO2 (centres unmarked) | -20.7 |
| Cc1ccnc(SCc2cc(=O)c(OC(=O)c3ccc(Cl)c([N+](=O)[O-])c3)co2)n1 | -20.4 |
| COc1cc(NC(=O)c2sc3ncn(CC(=O)N4CCCC(C)C4)c(=O)c3c2C)cc(OC)c1OC (centres unmarked) | 14.7 |
| COc1ccc(NC(=O)c2ccc(NC(=O)c3ccco3)cc2)c(OC)c1 | 12.1 |
| O=c1ccc2c(-c3ccccc3)c3ccc(O)cc3oc-2c1 | 22.6 |

| SMILES | hERG current change (%, negative = inhibition) at 10uM [%] |
| --- | --- |
| CCOc1ccc(S(=O)(=O)Nc2nc3ccccc3nc2Cl)cc1 | 0.455 |
| CCOC(=O)N1CCN(C(=O)c2cc(S(=O)(=O)N3CCCC3)cn2C)CC1 | 0.122 |
| C/C=C(\C)C(=O)Nc1cccc(C2=NOC3(C2)C[C@@H](C(N)=O)N(C(=O)/C(C)=C/C)C3)c1 (some centres unmarked) | 2.55 |
| Cc1cc(S(=O)(=O)N2CCN(c3ncccn3)CC2)ccc1-n1cnnn1 | 5.84 |
| Cn1nc(C(=O)NNC(=O)CCc2ccccc2Cl)c2ccccc2c1=O | -53.9 |
| O=C(CSc1nc2ccccc2c(=O)[nH]1)N1CCN(S(=O)(=O)c2ccccc2)CC1 | 3.18 |
| O=C(COC(=O)CSc1cc(Cl)ccc1Cl)NCc1ccc2c(c1)OCO2 | 13.5 |
| O=C1NC(=O)C(CCc2ccncc2)(c2ccccc2)C(=O)N1 | 5.76 |
| CS(=O)(=O)c1nc(-c2ccccc2)c(-c2ccccc2)[nH]1 | 5.1 |
| CCOC(=O)C1/C(=N\O)CC(C)(O)C(C(=O)OCC)C1c1ccc(OC)c(OC)c1 (centres unmarked) | -13.5 |
| CCCS(=O)(=O)n1nc(-c2ccc(Br)cc2)cc1N | 10.8 |
| Cc1ccc(C(C)C)c(OCC(=O)N/N=C/C2CCCCC2)c1 | -4.21 |
| Cc1ccc(C)c(OCCC(=O)OCC(=O)Nc2cc(S(=O)(=O)N3CCOCC3)ccc2C)c1 | -20.9 |
| CCOC(=O)N1CCN(C(=O)CSc2ccc3nnc(CCNC(=O)c4ccc(OC)cc4)n3n2)CC1 | -14.2 |
| Cc1ccc(SCC(=O)OCC(=O)N(C)C2CCS(=O)(=O)C2)cc1C (centres unmarked) | -11.5 |
| O=C(c1cccc(S(=O)(=O)N2CCc3ccccc32)c1)N1CCc2ccccc2C1 | -13 |
| CCc1ccc(N2CC(C(=O)Nc3cc(C)on3)CC2=O)cc1 (centres unmarked) | -9.26 |
| COC(=O)c1cc(-c2ccc(OC)cc2)n[nH]1 | 6.32 |
| COc1cccc(CNc2ccc3[nH]c(=O)[nH]c3c2)c1OCc1ccccc1F | 10.8 |
| COc1cc(C(Nc2ccc(S(=O)(=O)NCC3CCCO3)cc2)C(=O)NC(C)(C)C)cc(OC)c1OC (centres unmarked) | 11 |
| COc1ccc(C(c2c(C)[nH]n(-c3ccccc3)c2=O)c2c(C)[nH]n(-c3ccccc3)c2=O)cc1OC | -3.79 |
| CCOC(=O)C1C(=O)CC(C)(O)C(C(=O)OCC)C1c1ccc(F)cc1 (centres unmarked) | 10.1 |
| COC(=O)C1=C(c2ccc(F)cc2OCc2ccccc2)C[C@@H]2CC[C@H]1N2C(=O)NC(C)C | -35.3 |
| C=CCN1C(=O)C(O)(CC(=O)c2ccc(-n3cccc3)cc2)c2ccccc21 (centres unmarked) | -4.4 |
| CNC(=O)C(=O)Nc1c(C)cc(C)cc1C | 10.5 |
| CCC(=O)N(CCC1(C(C)C)CCOC(C)(C)C1)C(C)c1cccs1 (centres unmarked) | 5.85 |
